The supplement of paper PMC4166925
± gives the standard deviation of the averaged measurements. Over roughly 33,000 sequences, “E-score (dimensionless, -0.5 to 0.5)” has its median near -0.049; the highest 2% begin near 0.37. This is one part of the list.

These sequences were tested on T1, PmTbr T-box DNA-binding domain (GST fusion) (assay: PBM E-score of 8-mer (E-score (dimensionless, -0.5 to 0.5)); Tbr is Tbrain of the sea star Patiria miniata (Pm) or the sea urchin Strongylocentrotus purpuratus (Sp); higher = stronger binding preference; most listed sequences are background and not binding sites). Details: the construct has about 5 more residues each side.
T1 sequence: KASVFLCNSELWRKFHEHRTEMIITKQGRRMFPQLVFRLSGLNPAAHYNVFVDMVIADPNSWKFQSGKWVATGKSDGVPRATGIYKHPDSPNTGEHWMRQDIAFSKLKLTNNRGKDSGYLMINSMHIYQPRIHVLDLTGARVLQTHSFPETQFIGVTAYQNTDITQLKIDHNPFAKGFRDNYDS
Procedure, shortened: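 Each ungapped 8-mer received an enrichment E-score from the Universal PBM Analysis Suite, averaged over duplicate arrays. The proteins were Tbr T-box DNA-binding domains, covering the whole T-box plus about five flanking residues, fused to GST and expressed in BL21 E. coli at 20 °C before glutathione affinity purification. Universal Agilent oligonucleotide arrays were made double-stranded by primer extension and incubated with 200 nM protein in PBS (pH 7.5). The arrays were then scanned and quantified, and every 8-mer was scored from probe intensities.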

Sequence	PBM E-score of 8-mer
CTGGGCAA	-0.0976 ± 0.033
ACTGGTAG	-0.0136 ± 0.011
CAATTTAA	-0.0717 ± 0.078
CAAGGGGC	-0.095 ± 0.021
ACATCCGA	0.0423 ± 0.028
TAATGACA	0.155 ± 0.07
ACACAATG	0.122 ± 0.021
AAGACGCG	-0.0527 ± 0.027
CGGTTCTC	0.0577 ± 0.042
CCGCTACG	-0.186 ± 0.064
GAGGCACC	-0.072 ± 0.042
ACCTGTTG	0.3234 ± 0.00092
CGATCGCG	0.218 ± 0.026
CGTGTTGC	0.259 ± 0.0072
AGTAACTG	0.0359 ± 0.082
AGCAAACT	0.058 ± 0.032
ACGGACAA	-0.0315 ± 0.015
AAAATAGC	0.153 ± 0.055
ACTTTTTC	0.124 ± 0.02
CAGCCTCA	-0.176 ± 0.028
AAGAAATC	-0.185 ± 0.033
CGCAGGTC	0.0637 ± 0.057

Sequence	PBM E-score of 8-mer
CCCCGTGA	-0.0467 ± 0.12
GAGAATAA	0.0269 ± 0.072
AAACTAGC	0.0128 ± 0.01
GGATAAAC	-0.0868 ± 0.041
GGTTACAA	-0.0566 ± 0.048
AATACATA	0.0821 ± 0.051
AACGGGCG	0.194 ± 0.036
AACCTGCA	-0.102 ± 0.047
AAAGCACA	0.117 ± 0.054
TATAAATA	-0.203 ± 0.015
GGGTTTAC	-0.0575 ± 0.0035
ATACCTAA	0.0416 ± 0.058
ATACGCCG	-0.151 ± 0.092
AGCGAGTA	0.103 ± 0.1
AGTGCCAA	0.3809 ± 0.0024
GGATGGCC	-0.234 ± 0.018
CTGAGACC	-0.24 ± 0.018
GATCTCAA	-0.0224 ± 0.034
ACTGGCAC	0.264 ± 0.015
AGAGCGAA	-0.0994 ± 0.014
GCTCATGA	-0.12 ± 0.095
GAGGGGTA	-0.246 ± 0.014

Sequence	PBM E-score of 8-mer
CATTAGAC	-0.177 ± 0.0077
CGGCTACC	-0.107 ± 0.079
AATGCGTC	0.00296 ± 0.0052
GTTCCTTA	-0.0555 ± 0.021
ACGGGAAG	-0.0973 ± 0.061
CAGAGTAA	0.0248 ± 0.048
CAGAGATA	-0.139 ± 0.02
CTGGCTCC	-0.179 ± 0.065
AGAGCCTC	-0.118 ± 0.041
TCATCGCA	0.224 ± 0.037
ACTAGCCC	-0.188 ± 0.047
AGAGGCAG	-0.159 ± 0.034
AATAGTGA	0.0587 ± 0.035
AGGGAGTG	0.238 ± 0.064
AGCACGTG	0.252 ± 0.026
AACTGTAT	-0.115 ± 0.054
CCTCATAG	-0.0665 ± 0.046
GCTAGTAC	0.107 ± 0.018
CCAGGAAG	-0.108 ± 0.063
TATCCTCA	0.113 ± 0.032
AGGCAACT	-0.153 ± 0.053
AACGAAAT	0.000945 ± 0.056

Sequence	PBM E-score of 8-mer
AAGGGACC	-0.119 ± 0.0064
GCGGGTAC	0.0587 ± 0.056
ACGGTAAG	-0.229 ± 0.017
ACAACACA	0.347 ± 0.033
CAACCGAA	-0.0273 ± 0.062
AGAATGGC	-0.0505 ± 0.041
ACAGCCAT	-0.0893 ± 0.077
AATGGGGG	-0.379 ± 0.084
AGTTCGAT	0.0508 ± 0.0041
AAGAAAGC	-0.00917 ± 0.018
AACTCCGT	-0.0678 ± 0.0093
ACAGAGAT	-0.1 ± 0.034
CACGCACG	0.166 ± 0.02
ATTTTGCC	-0.236 ± 0.011
ATTGGGTG	0.219 ± 0.031
ACCGTGGG	-0.127 ± 0.08
TGCAGTAA	0.0562 ± 0.00087
CATCGTGG	0.00413 ± 0.062
GTCCGGAA	-0.254 ± 0.047
ACTAGGCA	-0.199 ± 0.013
AGGTCGCA	0.286 ± 0.027
AGGAGGGA	-0.145 ± 0.042

Sequence	PBM E-score of 8-mer
GTTTCAAA	-0.36 ± 0.028
AGATAAAT	-0.223 ± 0.057
GACACCAC	0.393 ± 0.016
ACATACTC	-0.13 ± 0.018
AATGTAGC	-0.0814 ± 0.05
ACGGCAGC	-0.0266 ± 0.025
CGTAGTGA	-0.00456 ± 0.0019
GTCACTCA	0.227 ± 0.0053
CAGGCGGA	-0.127 ± 0.072
TAAAGAGA	-0.117 ± 0.078
ACTGCGTG	-0.0457 ± 0.079
GCAATCTA	0.037 ± 0.016
CAGCGATC	0.0234 ± 0.031
TGATAACA	0.306 ± 0.012
GCAGCTCA	0.0484 ± 0.052
CCACCTGA	0.172 ± 0.044
GGAACGCC	0.148 ± 0.044
ACGGCCTG	-0.0299 ± 0.035
AACACCGC	0.287 ± 0.0081
AAAATCAA	-0.0399 ± 0.094
AGTTCGGA	-0.216 ± 0.0069
